# Data: the RNAGym collection of RNA variant scans (doi:10.7554/elife.90254)
# Read counts are not given, so values of variants with three or more changes are uncertain.
# B1: LINE1-mini (parent)
# chain: GGCAGAGCUCAACACAGCGUGGCAAAGUGGCUGUGGCUAGACUGCC
# Variants of: B1
# Experiment: self-cleavage, relative activity (ratio to wild type); higher = more cleavage; in vitro, sequencing; the parent is a self-cleaving ribozyme
row,Variant,self-cleavage
1,G1C C15A G29U,0.04
2,G1C C8U G29C A39G,0
3,G1C C15U G36C,0.01
4,G1C A16U U32C,0.01
5,G1C A26C C31G,0.02
6,G1C C10G A14G G35A,0
7,G1C C31A G36A C37U C42U,0.04
8,G1C U9A C46A,0.02
9,G1C G21U G36C G40A,0.03
10,G1U A4U U32C C45G,0.01
11,G1C U43G G44C,0.01
12,G1C G22U U43C,0.04
13,G1U A14G G21C G29U C45G,0.04
14,G1C G7C C18A G33U,0.03
15,G1U C8G U9G A26U U28A,0.01
16,G1C U34C G40C U43A,0.04
17,G1C C37G C42G,0
18,G1C G5A C18A U20G G29A C42G,0.03
19,G1U C3A C10U U34A,0.12
20,G1C C10U G17U,0.02
21,G1C C18U G21U G22C G30A C37U,0.03
22,G1C G7A C15G U34A,0.01
23,G1U A11G A14C,0.01
24,G1C G35U A41C,0.01

row,Variant,self-cleavage
1,G1C U9C G40A,0.01
2,G1C G2C G7U U9A C13G A24U C31A,0.01
3,G1C C10U A14U C15A A24U C31A G35A,0.01
4,G1C G21A G36A,0.24
5,G1C C23G G33U,0.07
6,G1C U20C G30C G33A,0.01
7,G1C C10A C46U,0.02
8,G1C A24G G33U U34G,0.04
9,G1U A6C C23U A24U U34C U38G,0
10,G1U C3U U9A G30A,0.1
11,G1C G7C G17C,0.03
12,G1C C15U A25U A26U G29C C42U,0.02
13,G1C G5A U20C,0
14,G1U A4C U20A,0.02
15,G1C C8A C37A C42U,0.04
16,G1C G17C G33A,0.04
17,G1U C3A C8U A14U C23G G29C G30A,0.05
18,G1U A12G G21U,0
19,G1C G5C C10U A16C C18A U20G C31U,0.02
20,G1U A11G G19U C23U C42G,0
21,G1U A14G G36U,0.07
22,G1C G7U A25U,0.05
23,G1C C10U C37A U38A,0
24,G1C G5U U34G G44U,0.03

row,Variant,self-cleavage
1,G1U C8G G40U C42U,0.08
2,G1U A6U C45G C46U,0.18
3,G1U A14C G19C G22C C23A G27A G30A,0
4,G1C C8G A16C,0.01
5,G1U C3G G22U,0.43
6,G1C A39G C46U,0.02
7,G1C G22C A26U G30U,0.03
8,G1C G22C C23A,0.05
9,G1C G7A A16G A24G,0.03
10,G1U A4G C15U A25U,0.04
11,G1C G5A C23A C46A,0.02
12,G1C G2A G5A U20A A39U,0.03
13,G1U A14U C42G C45U,0.16
14,G1C G2C A16G,0.01
15,G1U A14C A41C,0.01
16,G1U A14G U34A,0.03
17,G1C C10A A16U U34G G35U C42A,0.01
18,G1C G5A U43G,0.02
19,G1C C13G G22C,0.03
20,G1C C3G C15A G21A A25C C37G A41C,0.02
21,G1C C13G A16G C18U U20A G21U,0.01
22,G1C C3A C8G,0.04
23,G1U A4G G7U G19U G21U C23G A26U G33C G40A,0.06
24,G1C C13A A39C,0.02

row,Variant,self-cleavage
1,G1C C13U C31A U32G,0.01
2,G1U C3U C10A U20A A41C,0.02
3,G1C C3U G21C G22U G30U,0.05
4,G1U C8G C10G G30C,0.02
5,G1C G29C C31A,0.02
6,G1C C23A G44C,0.26
7,G1U A4U A12C,0.03
8,G1C G27A C46A,0.44
9,G1U A6G C23G A24U,0.04
10,G1C C10A G21C C45G,0.01
11,G1C A16U U28A,0.04
12,G1C G2A U20C G21U C31U G36A C46A,0.45
13,G1C G7U C10U U43A,0.01
14,G1C G17U G22C A39C,0.03
15,G1C G5A C13U G17U,0.05
16,G1C C8U C10G G35U C37G G40C,0
17,G1U A11G C13G,0
18,G1C C15U U34G C42A,0.02
19,G1U A14G G44U C45U C46U,0.05
20,G1U C8A A11U G33A A39U,0.03
21,G1U C3A A11G A24G,0.08
22,G1C G2C A6U G44C,0.13
23,G1C C10A U34G,0.01
24,G1C G7A A16G,0.02

row,Variant,self-cleavage
1,G1C G7A A16U,0.02
2,G1C C3U A4G C8A A26G G27U C45A C46U,0.07
3,G1U A14U G19A,0.08
4,G1U A6G G17U G19C U34A C46G,0.02
5,G1C G2A A14U G17U G21C,0.02
6,G1C C13A C18A C37A,0.08
7,G1C C8U A26G U28C G30A G33U,0.03
8,G1U A4U G7U,0.29
9,G1C C8A C13A G33A,0.01
10,G1U A12G C18G U28C G30U C31U U38G C42G C46U,0
11,G1C G5U U9G,0.01
12,G1C U28G G40U,0
13,G1C C37A C42G,0.03
14,G1C C3A A26U,0.13
15,G1U C3U G22A G27A G36U,0.33
16,G1C G21C G30C G33U,0.01
17,G1C C18G G29U G33C,0.01
18,G1U C8U G21C,0.04
19,G1C C8A G19U,0.04
20,G1U A26G C45U,0.38
21,G1U C8G C18A U28A G33U A39G,0.03
22,G1C G2U G7A G21U,0.09
23,G1U A12C G29C G33A G44U,0
24,G1U A11C G22U G36A,0.02

row,Variant,self-cleavage
1,G1U A16C U43C C45A,0.05
2,G1C G7U A16G C42A,0.01
3,G1C C3G U34A,0.01
4,G1C G7A U38C,0.01
5,G1C G5C U20G G27U C31U U43G,0
6,G1C U28C C42A,0.03
7,G1C G33C C37A,0.01
8,G1U A16U C23U G40C,0.03
9,G1C G27C U32C,0.03
10,G1C G19C G44U,0.13
11,G1C C18U G27A,0.03
12,G1U A24U U32G C37U U38C,0.02
13,G1U C8U A39C,0.11
14,G1C U9A G40C,0.01
15,G1C G33A G35U C37A U38C,0.01
16,G1U A4G C31A C46A,0.1
17,G1U A11C U28A G36C,0.01
18,G1C U32C U38A G44U C46U,0.01
19,G1U A25U C45A,0.47
20,G1C C3U A6U U9G A26C,0.07
21,G1U C10A A24U,0.02
22,G1U C3U A14C A25G G27U,0.2
23,G1C G2U A11C G27C G29U U32G A39C C42G,0
24,G1U C3G C15G,0.15

row,Variant,self-cleavage
1,G1U C8U C10U A26G A39G,0.02
2,G1C G2U U32C U34C,0.02
3,G1C C31G U32C G35A U43A C46U,0.01
4,G1U A14U U28C U43C,0.01
5,G1C C3U A14G G33U C45A,0.18
6,G1C C3A A41U C45A,0.21
7,G1U A11U A25U C45G,0.01
8,G1U C3G G19A,0.06
9,G1C G2C A4G,0.09
10,G1U C8U G17A G44U,0.08
11,G1U A4G G44C C45G C46G,0.14
12,G1U C3U G7A C13G A16G G27U G29U U32C,0.01
13,G1C C13A A16C,0.03
14,G1C C23U U32G,0.05
15,G1C G5U C8G G40C,0.01
16,G1C G2C C15A C18A A41U,0.02
17,G1U C10A G27C C31A C37U,0.05
18,G1C C31G A41U,0
19,G1C G7A C18U G29C,0.03
20,G1U A41G C42A,0.08
21,G1U C8G G44U,0.01
22,G1C G7C G17U G19C G22A G30C C37A,0.01
23,G1C G5U C18G G22A,0.01
